According to article PMC9054013 (2022):

Molecular target: SGIP C block (UniProt Q9BQI5)
Test: ITC

Kd: 111 µM
B1: AP2 α-appendage ([…]) (domain or fragment)
chain: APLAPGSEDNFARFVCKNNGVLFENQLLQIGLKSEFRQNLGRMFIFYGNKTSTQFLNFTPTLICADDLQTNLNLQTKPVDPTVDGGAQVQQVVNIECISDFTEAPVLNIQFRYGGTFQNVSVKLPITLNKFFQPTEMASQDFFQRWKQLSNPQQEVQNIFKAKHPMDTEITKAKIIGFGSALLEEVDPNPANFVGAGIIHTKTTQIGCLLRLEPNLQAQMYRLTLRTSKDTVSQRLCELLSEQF
